Reference: PubChem BioAssay AID1508624 (National Center for Advancing Translational Sciences (NCATS), 2021)
In all, about 48,000 compounds went through this assay and about 120 (0.25%) were called active. About 4% were inconclusive and are not listed. Calls come from the whole dose curve; as a rule, active = well fitted activation curve with a large enough effect; inconclusive = small, poorly fitted or top-dose-only effect, or another doubt; inactive = no such curve, though single readings can be large or run the other way. The list shows a part of the results.

Assay: Primary qHTS for Identification of Small Molecule Activators of Huntingtin-Antisense Promoter Activity; note: nearly all actives have a fitted effect of over 55% in size
Conditions: HEK293 HTT-AS promoter firefly luciferase reporter, 24 h; series mostly up to 57.5 µM; activity change, positive = activation: at the top concentration
Method in brief: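 Quantitative HTS used concentration series of up to 57.5 uM final on HEK293 luciferase reporter cells, 24 h at 37 degrees C. Readout was Dual-Glo firefly luminescence.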

Activity change, positive = activation, inactive:
Cc1nn(CC(=O)NCc2cccc(Br)c2)c(=O)c2c1sc1ccccc12 6.21%
Cc1cc(C)c(S(=O)(=O)NCCc2cc3cc(C)c(C)cc3[nH]c2=O)c(C)c1 -7.11%
O=S(=O)(NCCc1nnc2ccc(SCc3ccc(C(F)(F)F)cc3)nn12)c1ccccc1 -24.4%
CCOc1ccccc1NC(=O)CSc1nc2c(oc3ccccc32)c(=O)n1C(C)C -2.22%
COCCCNC(=O)c1cc(-c2ccc(OC)cc2)nc2n[nH]c(-c3ccc(Cl)cc3)c12 -10.4%
Cc1c(C(=O)Nc2ccc(F)cc2F)oc2ccc3c(c12)C(=O)CC(C)(C)O3 -60.6%
COc1ccc(CCNC(=O)c2cnc3ccc(C)cn3c2=O)cc1OC 17.1%
Cn1ncc2c(NCc3ccc(Cl)cc3)ncnc21 -6.29%
Cc1ccc(CNC(=O)c2c(O)nc3ccccn3c2=O)cc1 -7.78%
Cc1ccc(Cn2c(=O)n(CC3CCC(C(=O)N4CCC(C)CC4)CC3)c(=O)c3sccc32)cc1 (configuration not stated) -14.7%
CC(C)(C)c1cnc(CSc2cnc(NC(=O)C3CCNCC3)s2)o1 -43%
Cc1ccc(N(Cc2cccs2)C(=O)Nc2cccc(Cl)c2)cc1 -11.9%
Cc1c(Cl)cccc1NC(=O)NCc1c(-n2cccc2)sc2c1CCCC2 0%
Cc1oc2c(c1C(=O)Nc1ccccc1Br)C1=NCCN1C=N2 5.45%
COc1cccc(CNC(=O)c2sc3nc4n(c(=O)c3c2C)CCC4)c1 8.59%
O=C(NCCc1cccs1)c1ccc(Cn2c(SCc3ccccc3)nc3cccnc32)cc1 11%
CCOc1ccccc1NC(=O)Cn1cnc2c1c(=O)n(C)c(=O)n2C -15.4%
COc1ccc(N2CC3=C(C2=O)C(c2ccc(O)c(OC)c2)NC(=O)N3C)cc1 (configuration not stated) -0.703%
CCOC(=O)c1ccccc1NC(=O)c1cc2c(s1)-c1c(C)cccc1OC2 -4.75%
O=C(Nc1nc2ccc(F)cc2s1)c1nc(SCc2ccccc2F)ncc1Cl 0%
O=C(CN1C(=O)COc2ccc(S(=O)(=O)N3CCOCC3)cc21)Nc1ccc(F)c(Cl)c1 -21.3%
Cc1c(Cl)cccc1NC(=O)C1CCCN(C(=O)c2cnn(-c3ccccc3)c2-n2cccc2)C1 (configuration not stated) -42.6%
COc1cc(OC)c(N(C)C(=O)c2cn(C)c(=O)c3cc(OC)c(OC)cc23)cc1Cl -15.7%
O=C(NCCc1ccc(Cl)cc1)C(=O)NCC(c1ccc2c(c1)OCO2)N1CCOCC1 (configuration not stated) 0.204%
CC(C)c1c(C(=O)Nc2ccccc2)c(-c2ccccc2)c(-c2ccc(F)cc2)n1CC[C@@H](O)C[C@@H](O)CC(=O)O -3.52%
O=C(Nc1cc(C(F)(F)F)ccc1Cl)c1cc(-c2cccs2)nc2ccccc12 18.6%
Cc1cc(C)c(S(=O)(=O)NCCc2sc(-c3cccnc3)nc2C)c(C)c1 -19.8%
Cc1cc(S(=O)(=O)Nc2cc3c(cc2Cl)n(C)c(=O)c(=O)n3C)ccc1F -20.3%
Cn1c(=O)c2cc(C(=O)N3CCN(c4cccc(C(F)(F)F)c4)CC3)sc2c2ccccc21 -14.8%
CON(C)C(=O)N1N=C(c2cc(F)ccc2F)S[C@]1(CCCN)c1ccccc1 -30.1%
CCOC(=O)c1cc(-c2ccc(OC)cc2)n(CCC(=O)NCc2ccccc2OC)c1C -18.7%
Cc1ccsc1CN(Cc1ccco1)C(=O)c1ccc(Cl)cc1 -20.1%
Cc1ccc(C)c(N2CCN(S(=O)(=O)c3ccc(-c4cc(C(F)(F)F)on4)s3)CC2)c1 -16.9%
Cc1cc(=O)c2c(O)c3c(O)cc(=O)c4c3c3c(cc(O)c1c23)C(C)(C)C=4O
CCOC(=O)C1=C(CS(=O)(=O)c2ccc(C(C)(C)C)cc2)NC(=O)NC1c1cccc(OC)c1 (configuration not stated) -37.9%
Cc1cccc(NC(=O)CSc2nnc3[nH]c(=O)cc(C)n23)c1C -7.41%
COc1ccc(N2CCN(C(=O)c3cnc(SC)nc3C)CC2)cc1 1.1%
COc1ccc(-c2cc3c(=O)n(CC(=O)Nc4ccc(Br)c(C)c4)ccn3n2)cc1OC 13.6%
O=C(CSCc1ccc(F)cc1)N1CCc2c([nH]c3ccccc23)C1c1ccc(F)cc1 (configuration not stated) -31.8%
O=C(CCn1c(=O)c2cccn2c2cccnc21)Nc1ccccc1Br -11.4%
Cc1nn(S(=O)(=O)c2ccc(F)cc2)c(C)c1S(=O)(=O)N1CCCCC1 -9.83%
Cc1c(C(=O)Nc2cccc(C(F)(F)F)c2)oc2ccc(S(=O)(=O)N3CCC4(CC3)OCCO4)cc12 -31%
CC(C)(C)C(=O)Nc1nnc2n1CCS2 -2.97%
COc1ccc(NC(=O)CSc2c3c(nc4ccccc24)CCC3)cc1Cl -23.6%
CCN[C@H]1CN(CCCOC)S(=O)(=O)c2sc(S(N)(=O)=O)cc21 -0.744%
Cc1ccc2c(c1)N(C(=O)CCC(=O)Nc1ccc(F)cc1F)CC(C)O2 (configuration not stated) -11.4%
CCOc1ccccc1N(C)C(=O)c1cc(S(=O)(=O)NCCc2ccc(Cl)cc2)ccc1F -44.4%
CCOc1ccc(NC(=O)c2ccc3c(c2)nnn3C2CCCC2)cc1 -8.82%
CCN(CC)S(=O)(=O)c1ccc(NC(=O)c2ccc3c(=O)n4c(nc3c2)CCCCC4)cc1 -52%
Cc1ccccc1CNC(=O)CCc1cn(Cc2ccccc2C)c2ccccc12 -25.8%
CC(C)(C)c1ccc(C(=O)N2CCC(c3noc(-c4ccc(S(=O)(=O)N5CCCC5)cc4)n3)CC2)cc1 -20.5%
CCc1ccccc1NC(=O)CSc1nc(C)c(C(=O)Nc2ccccc2)c(-c2ccc(Cl)cc2)c1C#N -1.6%
Cc1ccc(NC(=O)C2CCN(S(=O)(=O)c3cccc4nonc34)CC2)c(Cl)c1 -14.4%
CCOC(=O)c1c(C)[nH]c(C)c1S(=O)(=O)N1CCC(C(=O)NCc2cccc(C)c2)CC1 -3.38%
O=C(Nc1ccc(-c2nc3ccccc3s2)c(O)c1)c1ccc(Br)cc1 12.5%
Cc1ccc(CN(C(=O)COc2ccc([N+](=O)[O-])cc2)c2ccccn2)cc1 -31.3%
CCN(CC)CCCNC(=O)c1cnc(SC)nc1-c1ccccc1 -10.9%
CCN(CC)CCCNC(=O)c1cn(C)c2ccc(S(=O)(=O)N(C)C3CCCCC3)cc2c1=O 11.4% [at 11.5 µM, percent change from vehicle, -100% = no light]
CCOCCc1nn2c(=O)cc(COC(=O)CNC(=O)c3cccc(C)c3)nc2s1 2.5%
Cc1ccc2c(=O)cc(C(=O)Nc3nc4ccc(Cl)cc4s3)oc2c1C 2.64%
COc1cccc(-c2ncnn2-c2sc3c(c2C#N)CCCCC3)c1OC 12%
CCN(C(=O)CSc1nc2ncccc2[nH]1)c1ccc(C(C)C)cc1 -23.5%
O=C(COc1ccc(Cl)cc1)Nc1nnc(S(=O)(=O)N2CCc3ccccc32)s1 -24.6%
CCOc1ccc(NC(=O)c2cnc(N3CCCC3)nc2C)cc1 3.56%
COc1ccc(CNc2nc3c(-c4cccc(C)c4)nnn3c3ccccc23)cc1 -1.98%
Cc1nn(CC(=O)N2CCC(C)CC2)c(=O)c2cc3sccc3n12 -11%
CCOc1ccc(CCNC(=O)c2cn(C)c3ccc(S(=O)(=O)N4CCCCCC4)cc3c2=O)cc1OCC -7.44%
COc1ccccc1NC(=O)c1c(NCc2ccc(OC)c(OC)c2OC)sc2c1CCC2 -26.7%
CCOC(=O)c1c(C)[nH]c(C)c1S(=O)(=O)N(C)CC(=O)N1CCN(c2ccccc2)CC1 -6%
CC(C)c1ccc(NC(=O)Cn2cc(S(=O)(=O)N3CCN(c4ccccc4F)CC3)c3ccccc3c2=O)cc1 -9.41%
Cc1ccc(S(=O)(=O)c2nnn3c2nc(N2CCN(c4ccccc4F)CC2)c2cc(Cl)ccc23)cc1C 9.42%
COc1ccc(/C=C/C(=O)Nc2ccc3nc4c(c(Nc5ccccc5OC)c3c2)CCCC4)cc1 -94.2%
O=C(c1ccc2c(c1)N(Cc1cccc(F)c1)C(=O)c1ccccc1S2)N1CCOCC1 -14.4%
Cc1ccccc1CN1C(=O)c2ccccc2S(=O)c2ccc(C(=O)NC3CCC(C)CC3)cc21 (configuration not stated) -15.3%
CC(=O)N1c2c(cc(Br)cc2S(=O)(=O)N2CCN(c3cc(C)ccc3C)CC2)CC1C (configuration not stated) -24%
OC[C@H](Cc1ccccc1)Nc1nc(Oc2ccc3c(c2)CCC3)nc2c1ncn2Cc1ccc(-c2ccccc2)cc1 -28.3%
Cc1ccc(S(=O)(=O)c2nnn3c2nc(N2CCCC2)c2sccc23)cc1C -11.9%
CC1=C(C#N)C(NC(=O)c2ccccc2Cl)(C(F)(F)F)C(=O)N1 (configuration not stated) 7.31%
CCc1ccc(NC(=O)c2sc3nc(C)c(Cl)c(C)c3c2NC(=O)c2ccccc2OC)cc1 -1.04%
COc1ccc(OC)c(NC(=O)C2=C(C)C(=O)OC23CCCCCC3)c1 -8.65%
CC(Oc1ccc(F)cc1)C(=O)N1CCC(c2nc3ccccc3s2)CC1 (configuration not stated) -36.1%
Cn1ncc2c(N3CCN(c4cccc(Cl)c4)CC3)ncnc21 -20.3%
CCOC(=O)N1CCc2c(sc(NCc3sccc3C)c2C(=O)Nc2ccc(OC)cc2OC)C1 -86.2%
Cc1cc(C)cc(NC(=O)C(Cc2ccccc2)NS(=O)(=O)c2ccc3c(c2)c(=O)n(C)c(=O)n3C)c1 (configuration not stated) -21.2%
CCOc1ccc(Oc2nc(NCC(C)C)nc(N3CCOCC3)n2)nn1 -2.16%
OC(Cn1cncn1)(Cn1cncn1)c1ccc(F)cc1F
Cc1cc(Cl)ccc1OCc1nc(-c2ccc(-n3cccc3)cc2)no1 -10.1% [at 11.5 µM, percent change from vehicle, -100% = no light]
CCCCOC(=O)c1ccc(NC(=O)c2cc3c(=O)n4cccc(C)c4nc3s2)cc1 -4.68%
CCOc1ccc(N2CC(c3nc4ccccc4n3CCCOc3ccccc3)CC2=O)cc1 (configuration not stated) -26.2%
Cc1c(C(=O)NCC(c2ccc(Cl)cc2)N2CCOCC2)oc2ccccc12 (configuration not stated) -20.9%
CCCCN(C)CCNC(=O)c1c2c(nc3ccccc13)C(=O)N(C1CCCCC1)C2 -13.9%
CC(C)(C)OC(=O)N1CCC(c2c(C(=O)NCCN3CCc4ccccc4C3)cnn2-c2ccc(F)cc2F)CC1 -29.5%
